Many values rest on one well or one pass, so single values are uncertain.
Key:
[1] = system: CHO-K1; assay: micronucleus frequency (% of nucleated events); higher = more micronuclei (genotoxic)
[2] = system: CHO-K1; assay: hypodiploid nuclei frequency (% of nucleated events); higher = more hypodiploid events (aneugenic)
Protocol: (§1)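 Flow-cytometric in vitro micronucleus assay (Litron MicroFlow) in CHO-K1 cells in 96-well plates, 19 concentrations (4.5-200 µM, n=1 per concentration). Without S9, cells were exposed for 24 h and sampled at 48 h. With Aroclor 1254-induced rat liver S9, cells were exposed for 3-4 h and sampled at 27-28 h. Read-outs are %MN and %hypodiploid nuclei relative to nucleated events, and relative survival as the nuclei-to-bead ratio versus the 1% DMSO vehicle control (x100).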

[3] = system: CHO-K1; assay: relative survival (nuclei to bead ratio vs DMSO control) (% of vehicle control); higher = more surviving cells
Protocol: as §1
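Wherever hypodiploid nuclei frequency (% of nucleated events) is given: hypodiploid nuclei gated on a flow cytometer with 488 nm excitation after SYTOX Green staining, cultures at 37 °C, positive controls vinblastine without S9 and cyclophosphamide with S9.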
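Wherever micronucleus frequency (% of nucleated events) is given: cells lysed with nuclei stained by SYTOX Green, then micronucleus-gated events counted against nucleated events by flow cytometry with 488 nm excitation.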
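Wherever relative survival (nuclei to bead ratio vs DMSO control) is given: Lysed-cell nuclei stained with SYTOX Green and counted against counting beads by flow cytometry at 488 nm excitation, with vinblastine (no S9) and cyclophosphamide (plus S9) as positive controls.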

Oc1cccc2cccnc12 [8-Hydroxyquinoline]
Conditions	hypodiploid nuclei frequency, [2] [%]	micronucleus frequency, [1] [%]	relative survival, [3]
concentration: 4.5 (µM), S9 metabolic activation: with S9, exposure time: 3-4 hours	0.32	1.56	67.6
concentration: 4.5 (µM), S9 metabolic activation: without S9, exposure time: 24 hours	0.86	1.56	108
concentration: 5.63 (µM), S9 metabolic activation: with S9, exposure time: 3-4 hours	0.26	2.1	82.7
concentration: 5.63 (µM), S9 metabolic activation: without S9, exposure time: 24 hours	0.92	1.82	71
concentration: 7.04 (µM), S9 metabolic activation: with S9, exposure time: 3-4 hours	0.26	1.58	77.3
concentration: 7.04 (µM), S9 metabolic activation: without S9, exposure time: 24 hours	0.74	2.06	65.4
concentration: 8.8 (µM), S9 metabolic activation: with S9, exposure time: 3-4 hours	0.22	1.48	82
concentration: 8.8 (µM), S9 metabolic activation: without S9, exposure time: 24 hours	0.7	1.9	80.2
concentration: 11 (µM), S9 metabolic activation: with S9, exposure time: 3-4 hours	0.18	1.62	82.8
concentration: 11 (µM), S9 metabolic activation: without S9, exposure time: 24 hours	0.76	2.44	54.6
concentration: 13.7 (µM), S9 metabolic activation: with S9, exposure time: 3-4 hours	0.34	2.22	102
concentration: 13.7 (µM), S9 metabolic activation: without S9, exposure time: 24 hours	0.51	1.69	46.8
concentration: 17.2 (µM), S9 metabolic activation: with S9, exposure time: 3-4 hours	0.38	2.2	92.2
concentration: 17.2 (µM), S9 metabolic activation: without S9, exposure time: 24 hours	0.62	1.45	42.8
concentration: 21.5 (µM), S9 metabolic activation: with S9, exposure time: 3-4 hours	0.38	2.56	86.5
concentration: 21.5 (µM), S9 metabolic activation: without S9, exposure time: 24 hours	–	–	38.6
concentration: 26.8 (µM), S9 metabolic activation: with S9, exposure time: 3-4 hours	0.36	3.16	44.2
concentration: 26.8 (µM), S9 metabolic activation: without S9, exposure time: 24 hours	0.56	2.58	46.1
concentration: 33.6 (µM), S9 metabolic activation: with S9, exposure time: 3-4 hours	–	–	19.8
concentration: 33.6 (µM), S9 metabolic activation: without S9, exposure time: 24 hours	–	–	39
concentration: 41.9 (µM), S9 metabolic activation: with S9, exposure time: 3-4 hours	–	–	5.74
concentration: 41.9 (µM), S9 metabolic activation: without S9, exposure time: 24 hours	0.52	3.18	48
concentration: 52.4 (µM), S9 metabolic activation: with S9, exposure time: 3-4 hours	–	–	1.18
concentration: 52.4 (µM), S9 metabolic activation: without S9, exposure time: 24 hours	0.24	3.18	47.9
concentration: 65.5 (µM), S9 metabolic activation: without S9, exposure time: 24 hours	0.42	2.93	42.1
concentration: 81.9 (µM), S9 metabolic activation: without S9, exposure time: 24 hours	0.48	2.16	50.4
concentration: 102 (µM), S9 metabolic activation: without S9, exposure time: 24 hours	0.62	3.92	58.1
concentration: 128 (µM), S9 metabolic activation: without S9, exposure time: 24 hours	0.68	4.54	55
concentration: 160 (µM), S9 metabolic activation: without S9, exposure time: 24 hours	0.53	3.54	43
concentration: 200 (µM), S9 metabolic activation: without S9, exposure time: 24 hours	0.4	2.27	44.9

NS(=O)(=O)c1cc2c(cc1Cl)NCNS2(=O)=O [Hydrochlorothiazide]
Conditions	hypodiploid nuclei frequency, [2] [%]	micronucleus frequency, [1] [%]	relative survival, [3]
concentration: 4.5 (µM), S9 metabolic activation: with S9, exposure time: 3-4 hours	0.38	2.54	87
concentration: 4.5 (µM), S9 metabolic activation: without S9, exposure time: 24 hours	1.3	2.56	127
concentration: 5.63 (µM), S9 metabolic activation: with S9, exposure time: 3-4 hours	0.32	2.3	85.5
concentration: 5.63 (µM), S9 metabolic activation: without S9, exposure time: 24 hours	0.98	2.3	129
concentration: 7.04 (µM), S9 metabolic activation: with S9, exposure time: 3-4 hours	0.38	2.42	80.6
concentration: 7.04 (µM), S9 metabolic activation: without S9, exposure time: 24 hours	1.2	2.06	144
concentration: 8.8 (µM), S9 metabolic activation: with S9, exposure time: 3-4 hours	0.48	2.12	91.6
concentration: 8.8 (µM), S9 metabolic activation: without S9, exposure time: 24 hours	1.26	2.1	158
concentration: 11 (µM), S9 metabolic activation: with S9, exposure time: 3-4 hours	0.32	1.82	94.4
concentration: 11 (µM), S9 metabolic activation: without S9, exposure time: 24 hours	1.38	1.9	127
concentration: 13.7 (µM), S9 metabolic activation: with S9, exposure time: 3-4 hours	0.5	1.68	100
concentration: 13.7 (µM), S9 metabolic activation: without S9, exposure time: 24 hours	0.74	2.06	119
concentration: 17.2 (µM), S9 metabolic activation: with S9, exposure time: 3-4 hours	0.28	1.96	86.7
concentration: 17.2 (µM), S9 metabolic activation: without S9, exposure time: 24 hours	1.24	1.58	124
concentration: 21.5 (µM), S9 metabolic activation: with S9, exposure time: 3-4 hours	0.38	2.2	106
concentration: 21.5 (µM), S9 metabolic activation: without S9, exposure time: 24 hours	1.18	1.76	141
concentration: 26.8 (µM), S9 metabolic activation: with S9, exposure time: 3-4 hours	0.42	1.22	93.2
concentration: 26.8 (µM), S9 metabolic activation: without S9, exposure time: 24 hours	1.68	1.86	126
concentration: 33.6 (µM), S9 metabolic activation: with S9, exposure time: 3-4 hours	0.5	1.3	94.2
concentration: 33.6 (µM), S9 metabolic activation: without S9, exposure time: 24 hours	1.8	2.08	134
concentration: 41.9 (µM), S9 metabolic activation: with S9, exposure time: 3-4 hours	0.26	1.22	90.7
concentration: 41.9 (µM), S9 metabolic activation: without S9, exposure time: 24 hours	1.9	1.98	116
concentration: 52.4 (µM), S9 metabolic activation: with S9, exposure time: 3-4 hours	0.22	1.32	74.7
concentration: 52.4 (µM), S9 metabolic activation: without S9, exposure time: 24 hours	1.38	2.08	115
concentration: 65.5 (µM), S9 metabolic activation: with S9, exposure time: 3-4 hours	0.38	1.32	106
concentration: 65.5 (µM), S9 metabolic activation: without S9, exposure time: 24 hours	1.56	1.96	129
concentration: 81.9 (µM), S9 metabolic activation: with S9, exposure time: 3-4 hours	0.24	1.6	112
concentration: 81.9 (µM), S9 metabolic activation: without S9, exposure time: 24 hours	1.76	2.38	127
concentration: 102 (µM), S9 metabolic activation: with S9, exposure time: 3-4 hours	0.22	1.42	105
concentration: 102 (µM), S9 metabolic activation: without S9, exposure time: 24 hours	1.68	2.44	129
concentration: 128 (µM), S9 metabolic activation: with S9, exposure time: 3-4 hours	0.3	1.14	89.1
concentration: 128 (µM), S9 metabolic activation: without S9, exposure time: 24 hours	2.14	1.94	149
concentration: 160 (µM), S9 metabolic activation: with S9, exposure time: 3-4 hours	0.24	1.44	81.7
concentration: 160 (µM), S9 metabolic activation: without S9, exposure time: 24 hours	1.88	2.44	129
concentration: 200 (µM), S9 metabolic activation: with S9, exposure time: 3-4 hours	0.32	1.76	75.7
concentration: 200 (µM), S9 metabolic activation: without S9, exposure time: 24 hours	2.58	2.74	122

ClC(Cl)(Cl)c1ccccc1 [Benzotrichloride]
Conditions	hypodiploid nuclei frequency, [2] [%]	micronucleus frequency, [1] [%]	relative survival, [3]
concentration: 4.5 (µM), S9 metabolic activation: with S9, exposure time: 3-4 hours	0.16	1.04	155
concentration: 4.5 (µM), S9 metabolic activation: without S9, exposure time: 24 hours	0.84	2.6	151
concentration: 5.63 (µM), S9 metabolic activation: with S9, exposure time: 3-4 hours	0.22	1.38	152
concentration: 5.63 (µM), S9 metabolic activation: without S9, exposure time: 24 hours	0.72	1.56	169
concentration: 7.04 (µM), S9 metabolic activation: with S9, exposure time: 3-4 hours	0.2	1.24	111
concentration: 7.04 (µM), S9 metabolic activation: without S9, exposure time: 24 hours	0.8	1.72	132
concentration: 8.8 (µM), S9 metabolic activation: with S9, exposure time: 3-4 hours	0.28	1.42	133
concentration: 8.8 (µM), S9 metabolic activation: without S9, exposure time: 24 hours	0.72	1.78	172
concentration: 11 (µM), S9 metabolic activation: with S9, exposure time: 3-4 hours	0.2	1.04	143
concentration: 11 (µM), S9 metabolic activation: without S9, exposure time: 24 hours	0.76	2.26	123
concentration: 13.7 (µM), S9 metabolic activation: with S9, exposure time: 3-4 hours	0.2	1.08	161
concentration: 13.7 (µM), S9 metabolic activation: without S9, exposure time: 24 hours	0.8	1.48	133
concentration: 17.2 (µM), S9 metabolic activation: with S9, exposure time: 3-4 hours	0.3	1.06	179
concentration: 17.2 (µM), S9 metabolic activation: without S9, exposure time: 24 hours	0.7	1.56	120
concentration: 21.5 (µM), S9 metabolic activation: with S9, exposure time: 3-4 hours	0.16	0.88	138
concentration: 21.5 (µM), S9 metabolic activation: without S9, exposure time: 24 hours	0.88	2.02	117
concentration: 26.8 (µM), S9 metabolic activation: with S9, exposure time: 3-4 hours	0.2	1.4	96.2
concentration: 26.8 (µM), S9 metabolic activation: without S9, exposure time: 24 hours	1.06	1.66	109
concentration: 33.6 (µM), S9 metabolic activation: with S9, exposure time: 3-4 hours	0.14	1.48	105
concentration: 33.6 (µM), S9 metabolic activation: without S9, exposure time: 24 hours	1.12	2	146
concentration: 41.9 (µM), S9 metabolic activation: with S9, exposure time: 3-4 hours	0.22	1.32	106
concentration: 41.9 (µM), S9 metabolic activation: without S9, exposure time: 24 hours	0.96	1.64	121
concentration: 52.4 (µM), S9 metabolic activation: with S9, exposure time: 3-4 hours	0.22	1.12	117
concentration: 52.4 (µM), S9 metabolic activation: without S9, exposure time: 24 hours	1	1.84	131
concentration: 65.5 (µM), S9 metabolic activation: with S9, exposure time: 3-4 hours	0.24	1.32	123
concentration: 65.5 (µM), S9 metabolic activation: without S9, exposure time: 24 hours	0.8	2.02	105
concentration: 81.9 (µM), S9 metabolic activation: with S9, exposure time: 3-4 hours	0.2	1.42	97.5
concentration: 81.9 (µM), S9 metabolic activation: without S9, exposure time: 24 hours	1.06	2.08	158
concentration: 102 (µM), S9 metabolic activation: with S9, exposure time: 3-4 hours	0.26	1.34	146
concentration: 102 (µM), S9 metabolic activation: without S9, exposure time: 24 hours	1.12	2.16	130
concentration: 128 (µM), S9 metabolic activation: with S9, exposure time: 3-4 hours	0.18	1.24	139
concentration: 128 (µM), S9 metabolic activation: without S9, exposure time: 24 hours	0.94	1.78	111
concentration: 160 (µM), S9 metabolic activation: with S9, exposure time: 3-4 hours	0.2	1.06	126
concentration: 160 (µM), S9 metabolic activation: without S9, exposure time: 24 hours	1.1	2.02	96
concentration: 200 (µM), S9 metabolic activation: with S9, exposure time: 3-4 hours	0.38	1.44	138
concentration: 200 (µM), S9 metabolic activation: without S9, exposure time: 24 hours	1.26	2.28	85.5

— the supplement of paper PMC9151546
